Measurements: the supplement of paper PMC4967469

Tests used:
Experiment in all cases: Viability of human cancer cell lines after 72 h of drug (GDSC screen)
JNK-9L = compound: Fc1cc(-c2ccnc(Nc3ccc(-n4cnc(N5CCOCC5)n4)cc3)n2)cc(N2CCOCC2)c1 [JNK-9L]; settings: top dose 5.12 µM; top dose inferred
Procedure: (§1)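 Human cancer cell lines in 384-well plates, medium with 10% serum, drug for 72 h over a 256-fold dose range (nine 2-fold or five 4-fold steps up to the top dose). Adherent lines were fixed and stained with the nucleic acid dye Syto60, suspension lines read with resazurin; signal relative to control wells, capped at 0 and 100%. One two-parameter sigmoid per drug and line, fitted in a mixed model over all curves with the slope shared within a line.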

OSU-03012 = compound: NCC(=O)Nc1ccc(-n2nc(C(F)(F)F)cc2-c2ccc3c(ccc4ccccc43)c2)cc1 [OSU-03012]; settings: top dose 16 µM; top dose inferred
Procedure: as §1

QS11 = compound: OC[C@H](Cc1ccccc1)Nc1nc(Oc2ccc3c(c2)CCC3)nc2c1ncn2Cc1ccc(-c2ccccc2)cc1 [QS11]; settings: top dose 10.24 µM
Procedure: as §1

RDEA119 = compound: COc1cc(F)c(F)c(Nc2ccc(I)cc2F)c1NS(=O)(=O)C1(C[C@H](O)CO)CC1 [RDEA119]; settings: top dose 5 µM, top dose inferred
Procedure: as §1

CUDC-101 = compound: C#Cc1cccc(Nc2ncnc3cc(OC)c(OCCCCCCC(=O)NO)cc23)c1 [CUDC-101]; settings: top dose 5.12 µM; top dose inferred
Procedure: as §1

AC220 = compound: CC(C)(C)c1cc(NC(=O)Nc2ccc(-c3cn4c(n3)sc3cc(OCCN5CCOCC5)ccc34)cc2)no1 [AC220]; settings: top dose 1.024 µM; top dose inferred
Procedure: as §1

Cell Line | AUC (JNK-9L) | IC50 (JNK-9L) | AUC (OSU-03012) | IC50 (OSU-03012) | AUC (QS11) | IC50 (QS11) | AUC (RDEA119; screen: GDSC drug entry 1014) | IC50 (RDEA119; screen: GDSC drug entry 1014) | AUC (RDEA119; screen: GDSC drug entry 1526) | IC50 (RDEA119; screen: GDSC drug entry 1526) | AUC (CUDC-101) | IC50 (CUDC-101) | AUC (AC220) | IC50 (AC220)
NK-92MI (lymphoid neoplasm, suspension) | 0.528 | 0.379 µM | 0.734 | 4.38 µM | 0.766 | 3.53 µM |  |  |  |  |  |  |  | 
OCI-LY7 (B-cell lymphoma, suspension) |  |  |  |  |  |  | 0.969 | > 5 µM |  |  |  |  |  | 
PWR-1E (prostate, adherent) |  |  |  |  |  |  | 0.904 | > 5 µM | 0.974 | > 5 µM |  |  |  | 
RCH-ACV (B-cell leukaemia, suspension) |  |  |  |  |  |  | 0.983 | > 5 µM | 0.975 | > 5 µM |  |  |  | 
RH-18 (rhabdomyosarcoma, adherent) |  |  |  |  |  |  | 0.862 | > 5 µM | 0.869 | > 5 µM |  |  |  | 
SCC90 (head and neck, adherent) | 0.61 | 0.731 µM | 0.866 | > 16 µM | 0.98 | > 10.2 µM | 0.588 | 0.603 µM | 0.7 | 1.46 µM |  |  |  | 
SK-GT-2 (stomach, adherent) |  |  |  |  |  |  | 0.882 | > 5 µM | 0.867 | 4.92 µM |  |  |  | 
SK-MEL-5 (melanoma, adherent) |  |  |  |  |  |  | 0.498 | 0.308 µM | 0.619 | 0.716 µM | 0.959 | > 5.12 µM | 0.983 | > 1.02 µM
SK-MEL-31 (melanoma, adherent) |  |  |  |  |  |  | 0.867 | > 5 µM | 0.95 | > 5 µM |  |  |  | 
SKM-1 (haematopoietic neoplasm, suspension) |  |  |  |  |  |  | 0.199 | 0.0358 µM | 0.24 | 0.0507 µM |  |  |  | 
STS-0421 (soft tissue, adherent) | 0.569 | 0.512 µM | 0.938 | > 16 µM | 0.888 | > 10.2 µM | 0.781 | 2.44 µM | 0.821 | 3.53 µM |  |  |  | 
SUP-B8 (B-cell leukaemia, suspension) |  |  |  |  |  |  | 0.988 | > 5 µM | 0.985 | > 5 µM |  |  |  | 
TC-YIK (cervix, suspension) |  |  |  |  |  |  | 0.844 | 2.9 µM | 0.837 | 2.73 µM |  |  |  | 
THP-1 (acute myeloid leukaemia, suspension) | 0.715 | 1.21 µM |  |  | 0.971 | > 10.2 µM |  |  |  |  | 0.309 | 0.0994 µM |  | 
U-266 (myeloma, semi-adherent) |  |  |  |  |  |  | 0.821 | 4.36 µM | 0.902 | > 5 µM |  |  |  | 
UACC-62 (melanoma, adherent) | 0.524 |  |  |  | 0.987 | > 10.2 µM | 0.987 | > 5 µM | 0.364 | 0.132 µM | 0.714 | 1.28 µM | 0.985 | > 1.02 µM
VMRC-LCD (lung adenocarcinoma, adherent) |  |  |  |  |  |  | 0.984 | > 5 µM | 0.992 | > 5 µM |  |  |  | 
ZR-75-30 (breast, adherent) |  |  |  |  |  |  | 0.976 | > 5 µM |  |  |  |  |  | 

A lower IC50 marks a more sensitive line; where the fit passes the top or lowest dose, that dose stands as a limit. AUC sums up the same curve from the lowest dose to the 256-fold higher top dose; it is 1 without any effect and falls as sensitivity rises. For some assays here: The top dose, if marked as inferred, comes from the curve model; the source does not state it. For some assays here: An entry number marks a drug with two screens in the source, which often give different values.
